# Among all 260,000 compounds or so, about 890 (0.34%) were called active. Inconclusive means that the source gave no clear call. Such entries were picked first, then a sample of the others. Calls come from the whole dose curve; as a rule, active = well fitted activation curve with a large enough effect; inconclusive = small, poorly fitted or top-dose-only effect; inactive = no such curve, though single readings can be large or run the other way. No potency is given beside an inconclusive call; the fits are too rough.
# Target: Pyruvate kinase PKM (Homo sapiens) (UniProt P14618)
# Sequence of UniProt P14618 (P14618 whole entry, looked up, canonical isoform): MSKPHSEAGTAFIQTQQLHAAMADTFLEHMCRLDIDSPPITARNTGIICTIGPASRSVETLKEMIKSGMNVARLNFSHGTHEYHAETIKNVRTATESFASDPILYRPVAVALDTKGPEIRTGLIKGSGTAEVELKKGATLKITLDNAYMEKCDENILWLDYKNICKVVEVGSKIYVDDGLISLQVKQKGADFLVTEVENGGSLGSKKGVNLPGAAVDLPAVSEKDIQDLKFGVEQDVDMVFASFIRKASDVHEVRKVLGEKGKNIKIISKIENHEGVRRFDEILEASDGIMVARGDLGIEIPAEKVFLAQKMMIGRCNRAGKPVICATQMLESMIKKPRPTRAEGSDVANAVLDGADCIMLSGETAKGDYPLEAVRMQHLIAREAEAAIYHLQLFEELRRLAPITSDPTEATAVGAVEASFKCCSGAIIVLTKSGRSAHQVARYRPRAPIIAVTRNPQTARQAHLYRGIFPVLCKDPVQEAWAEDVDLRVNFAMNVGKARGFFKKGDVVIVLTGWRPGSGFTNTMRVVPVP
# Assay: qHTS Assay for Activators of Human Muscle isoform 2 Pyruvate Kinase; note: nearly all actives have a fitted effect of over 55% in size
# Conditions: purified PKM2, Kinase-Glo ATP luminescence; Potency: activation; activation: at 57.5 µM (top of the series), 0% is enzyme alone, no compound
# In short: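 Purified hPK-M2 (>95% pure) converted ADP (0.1 mM final) to ATP with 0.5 mM PEP in 50 mM imidazole pH7.2, KCl, MgCl2, Tween 20, BSA; 1 h at room temperature. ATP detected by Kinase-Glo luminescence.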
# Potency is the fitted concentration of half-maximal effect; tags give direction and shape of the fitted curve.
row,SMILES,Potency
1,Cc1cccc(CS(=O)(=O)c2nnc([C@H](Cc3ccccc3)NC(=O)OC(C)(C)C)o2)c1,"inconclusive [rising, partial curve]"
2,CC(=O)Nc1ccc(C(=O)CS(=O)(=O)c2ccc(C)cc2)cc1,"inconclusive [rising, single point]"
3,CCOC(=O)c1sc(S(C)(=O)=O)c2c1CCc1conc1-2,"inconclusive [rising, single point]"
4,CC(C)c1ccccc1NC(=O)COC(=O)/C=C/c1cccc([N+](=O)[O-])c1,inactive
5,COc1cc(C(C[N+](=O)[O-])c2c(C)cc3ccccn23)ccc1O (stereo not drawn),"inconclusive [rising, full curve, poor fit]"
6,COCCNS(=O)(=O)c1ccc2c(c1)oc(=O)c1cc(S(=O)(=O)NCCOC)ccc12,"inconclusive [rising, partial curve]"
7,O=C1C(Br)=Cc2cccc3cccc1c23,inactive
8,CCN(CC)S(=O)(=O)c1cccc(-c2nnc(SCC(=O)c3cc(C)n(C4CC4)c3C)o2)c1,"inconclusive [rising, single point]"
9,N=C1/C(=C\c2coc3ccc(O)cc3c2=O)C(=O)N=C2SC=CN12,active: 28.2 µM
10,CCOC(=O)c1ccc(NC(=O)CCc2nc(-c3ccc(C)cc3)no2)cc1,inactive
11,CC(/C=C1\SC(=S)N(CCCC(=O)Nc2ccc(C(=O)O)c(O)c2)C1=O)=C\c1ccccc1,inactive
12,O=C(C1=NN[C@@H]2C(=O)N(c3cccc(F)c3)C(=O)[C@H]12)c1cnccn1,"inconclusive [rising, partial curve, poor fit]"
13,OC(CNCCCCNCC(O)C(F)(F)F)C(F)(F)F (stereo not drawn),"inconclusive [rising, single point]"
14,O=S1(=O)CCN2C(=N1)Sc1c2ccc2c1CCCC2,"inconclusive [rising, partial curve]"
15,COCC(=O)OCC(=O)Nc1ccc(Cl)cc1[N+](=O)[O-],"inconclusive [rising, single point]"
16,COc1ccc(/C=C/C(=O)NCCNC(=O)c2ccccc2)cc1OC,"inconclusive [rising, single point]"
17,COc1cc(C(=O)NNC(=O)c2ccco2)cc(OC)c1OC,inactive
18,O=[N+]([O-])c1cc(S(=O)(=O)N2CCCC2)ccc1NCCc1ccccc1,active: 3.16 µM
19,CNS(=O)(=O)c1ccc2c(c1)oc(=O)c1cc(S(=O)(=O)NC)ccc12,active: 1.58 µM
20,O=C(NNC(=O)c1ccccc1F)C1=NN(c2ccccc2)C(=O)CC1,inactive
21,CCOC(=O)c1c(CN2CCCCC2)n(C)c2cc(Br)c(O)c(CN(C)C)c12,"inconclusive [rising, single point]"
22,S=C(c1ccc(-c2ccc(Cl)cc2)o1)N1CCCCC1,"inconclusive [rising, partial curve]"
23,COc1cc(C2Oc3ccccc3C=C2[N+](=O)[O-])cc(OC)c1OC (stereo not drawn),"inconclusive [rising, single point]"
24,COc1ccc(C2NC(=S)NC3=C2N2CCC3CC2)cc1 (stereo not drawn),inactive
25,O=S(=O)(c1ccc(F)cc1)N1CCN(C(=S)NCc2ccco2)CC1,"inconclusive [rising, single point]"

row,SMILES,Potency
1,O=S(=O)(Nc1ccc2nc(-c3ccc(Br)o3)[nH]c2c1)c1ccccc1,"inconclusive [rising, single point]"
2,CCOc1ccccc1C(=O)N(Cc1ccco1)C1CCS(=O)(=O)C1 (stereo not drawn),inactive
3,Cc1ccc(CSc2nnc(-c3ccc(NS(=O)(=O)c4ccccc4)cc3)o2)cc1,inactive
4,O=c1[nH]c(Cn2nnc(-c3ccccc3)n2)nc2scc(-c3ccccc3)c12,active: 14.1 µM
5,CCOC(=O)c1sc(S(C)=O)c2c1CCc1conc1-2 (stereo not drawn),"inconclusive [rising, single point]"
6,COc1ccc(S(=O)(=O)N2CCN(c3ccccc3)CC2)cc1,"inconclusive [rising, partial curve]"
7,CCOc1ccccc1-c1cc(-c2ccc(OC)cc2)nc2c1c(=O)n(C)c(=O)n2C,"inconclusive [rising, single point]"
8,Cc1ccc(CNC(=O)c2ccc(Cn3nc(C)c(Cl)c3C)o2)cc1,inactive
9,Cc1cc(-c2csc(NC(=O)c3ccc(=O)[nH]c3)n2)c(C)n1Cc1ccco1,active: 10 µM
10,CCOC(=O)C1(CCOc2ccccc2)CCN(C(=O)c2ccc(-n3cccn3)cc2)CC1,"inconclusive [rising, single point]"
11,COc1cc2c(cc1NC(=O)CSc1nc3ccccc3[nH]1)oc1ccccc12,inactive
12,COc1cc(-c2cc(C(=O)NCCc3ccc(S(N)(=O)=O)cc3)c3ccccc3n2)cc(OC)c1OC,inactive
13,CCOC(=O)CSc1nc2c(c(=O)[nH]c(=O)n2C)n1CCc1ccccc1,inactive
14,O=C(CSc1nnc(-c2ccncc2)s1)Nc1ccccc1,active: 3.98 µM
15,Nc1nnc(SCC(=O)NC2CCCc3ccccc32)s1 (stereo not drawn),"inconclusive [rising, single point]"
16,O=C1NC(=O)/C(=C/c2ccc(N3CCOCC3)o2)N1,"inconclusive [rising, single point]"
17,Cc1cc(C)cc(NS(=O)(=O)c2ccc3c(c2)c(=O)n(C)c(=O)n3C)c1,"inconclusive [rising, full curve]"
18,CCCCn1c(=O)[nH]c(=O)c2c1nc(-c1ccc(-c3ccccc3Br)o1)n2CCOC,"inconclusive [rising, single point]"
19,CCN1C(=O)/C(=C\C(=O)c2cccs2)c2cc(Br)ccc21,"inconclusive [rising, partial curve]"
20,Cc1ccc(-n2nc3c([n+]2[O-])CCc2c-3no[n+]2[O-])cc1,inactive
21,CCCC1=C/C(=C/c2ccc(-c3ccccc3OC)o2)C(=O)O1,"inconclusive [rising, single point]"
22,COc1ccc(C(=O)CCS(=O)(=O)c2ccc(C)cc2)cc1OC,inactive
23,Cc1cc(C(=O)CSc2nc(N)cc(N)n2)c(C)n1C1CC1,"inconclusive [rising, partial curve]"
24,O=C(c1cc(C(=O)N2CCN(c3ccc(F)cc3)CC2)cc([N+](=O)[O-])c1)N1CCN(c2ccc(F)cc2)CC1,inactive
25,Cc1ccc(NC(=O)/C(=C\c2ccc([N+](=O)[O-])cc2)NC(=O)c2ccccc2)cc1,inactive

row,SMILES,Potency
1,Cc1cc2c(cc1S(=O)(=O)Nc1cccc(C)c1C)OCC(=O)N2,"inconclusive [rising, full curve]"
2,COC(=O)c1cc(C)nc(Sc2ccccc2N)n1,"inconclusive [rising, full curve]"
3,O=S(=O)(c1ccc(F)cc1)N1CCN(Cc2ccccn2)CC1,"inconclusive [rising, partial curve]"
4,NC(=O)C1CCN(C(=O)c2ccco2)CC1,"inconclusive [rising, full curve, poor fit]"
5,Cc1cccc(-c2nc(CS(=O)CC(=O)NC3CCCC3)c(C)o2)c1 (stereo not drawn),inactive
6,CC(NC(=O)/C=C/c1ccco1)c1nc2ccccc2n1Cc1cccc(Cl)c1 (stereo not drawn),"inconclusive [rising, partial curve]"
7,Cc1ccc(S(=O)(=O)N2CCN(CC(=O)N(CC(C)C)c3c(N)n(CC(C)C)c(=O)[nH]c3=O)CC2)c(C)c1,inactive
8,Brc1ccccc1-c1nnc(-c2cccnc2)o1,inactive
9,C/C=C/c1ccc(OCC(=O)Nc2ccc(OC)c(OC)c2)c(OC)c1,inactive
10,O=C(O)CCc1ccc(-c2ccccc2)o1,"inconclusive [rising, partial curve]"
11,CC1=C(C(=O)OCc2ccccc2)C(c2ccc([N+](=O)[O-])cc2)NC(=O)N1CCCC(=O)O (stereo not drawn),inactive
12,Cc1ccc2nsnc2c1S(=O)(=O)N1CCN(Cc2ccc3c(c2)OCO3)CC1,"inconclusive [rising, partial curve]"
13,O=C(CCc1nnc(CCc2ccccc2)o1)N1CCCC1c1nccs1 (stereo not drawn),"inconclusive [rising, single point]"
14,O=C(CSCc1ccccc1)N1CCN(S(=O)(=O)c2ccc(F)cc2)CC1,"inconclusive [rising, single point]"
15,Cc1ccc(S(=O)(=O)n2nc(C)c(Br)c2C)c(C)c1C,"inconclusive [rising, partial curve]"
16,CC1(C)CC(=O)c2c(oc3ccc(NS(=O)(=O)c4cccc5cccnc45)cc23)C1,"inconclusive [rising, single point]"
17,C=CCN(C(=O)CCC(=O)O)C1CC(=O)N(c2ccc(OCCC)cc2)C1=O (stereo not drawn),inactive
18,CCOc1cc(/C=C2\COc3ccccc3C2=O)ccc1OCC(=O)N(C)C,inactive
19,C=C(C)C(=O)O[C@H]1C/C(C)=C\C(=O)/C=C(\C)[C@H](O)[C@@H]2OC(=O)C(=C)[C@@H]21,"inconclusive [rising, partial curve]"
20,Cc1cc(NC(=O)CSCc2ccccc2)no1,"inconclusive [rising, single point]"
21,CC(=O)c1c(C)n(C)c2ccc(OC(=O)c3ccco3)cc12,inactive
22,Cn1c(C(=O)N2CCN(C(=O)c3ccco3)CC2)cc2c(=O)n3ccccc3nc21,"inconclusive [rising, partial curve]"
23,CCCCNc1ccc(S(N)(=O)=O)cc1[N+](=O)[O-],"inconclusive [rising, partial curve]"

# — PubChem BioAssay AID1631 (National Center for Advancing Translational Sciences (NCATS), 2009)
